# In PubChem BioAssay (NCI):
#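 Test compounds were applied to cells in 96-well plates for 48 hours at 5 doses. At the GI50, growth is halved. TGI marks complete inhibition of growth.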
# System: NCI-H322M lung
# Experiment: growth of human tumour cells (NCI), 48 h
SMILES,GI50,TGI
COc1cccc2nc(Nc3ccc(F)c(NC(=O)c4ccc(CN5CCN(C)CC5)c(C(F)(F)F)c4)c3)ccc12,15.2 µM,28.8 µM
N#Cc1c(-c2ccccc2Cl)cc(-c2ccc3ccccc3c2)[nH]c1=O,26.7 µM,> 100 µM
O=C(CSc1nc2ccccc2c(=O)n1-c1ccc(Cl)cc1)Nc1ccc(-c2nc3ccc([N+](=O)[O-])cc3[nH]2)cc1,3.14 µM,24.5 µM
N#Cc1ccc(/C=N/NC(=O)c2[nH]c3ccc(Br)cc3c2-c2ccccc2)o1,0.708 µM,18.8 µM
O=C(c1ccc(O)cc1)C1[C@H](c2ccc(Cl)cc2)[C@@H](c2ccccc2)NC12C(=O)Nc1ccccc12 (some centres undefined),6.04 µM,11.7 µM
Cc1cc(C)cc(Oc2cccc(-c3c(C)nnn3C3CCN(CCN(C)C)CC3)n2)c1,4.22 µM,21.4 µM
O=c1oc2ccc(-c3ccc(F)cc3F)cc2c(=O)n1-c1ccc(F)cc1,2.78 µM,14.1 µM
